From ChEMBL document CHEMBL4888484, “Replenishing the malaria drug discovery pipeline: Screening and hit evaluation of the MMV Hit Generation Library 1 (HGL1) against asexual blood stage Plasmodium falciparum ,using a nano luciferase reporter read-out” (2022)
Screen size: about 150,000 compounds; about 540 (0.36%) showed an effect of 50% or more. The list shows a part of the results.

System: Plasmodium falciparum
Experiment: Primary screen in NF54 nanoGlo assay, in single point, at 2uM, 72h; a lower Z score goes with more inhibition
Format: functional, Erythrocyte
Conditions: timepoint 72 hour

Row | Compound | % Inhibition [%] | Z score
1 | O=C(NCCN1CCCCC1)[C@@H]1CCCO1 | 12 | -1.75
2 | CN1C[C@H](NC(=O)N2CCC(F)(F)CC2)c2sccc2S1(=O)=O | 0 | 0.03
3 | Cn1nc(C(=O)N2CCC(n3nc(C(F)(F)F)n(C)c3=O)CC2)ccc1=O | 0 | -0.03
4 | COc1ccc(NC(C)=O)cc1NC(=O)N1CCC(=O)CC12CCC2 | 4 | -0.51
5 | O=C(NCCc1ncccn1)OCC(F)(F)F | 5 | -0.72
6 | Cc1n[nH]cc1CNCC1(N2CCOCC2)CCCCC1 | -4 | 0.86
7 | COc1ccccc1CNC(=O)c1cnn2ccc(NC(C)=O)cc12 | -9 | 1.34
8 | O=C(NCC1CCN(c2ccccn2)CC1)Nc1cccs1 | -14 | 2.11
9 | Cc1nc(N2CCO[C@H](C3CC3)C2)ccc1Cl | -2 | 0.35
10 | CN(CC(=O)Nc1ccc(F)cc1)C(=O)c1ccc2c(c1)CCCC2 | -4 | 0.82
11 | Fc1cc(-c2ccc(Cn3ccnc3)cc2)c2ncccc2c1 | 3 | -0.6
12 | CC1OCCC1NS(=O)(=O)c1cncc(F)c1 (stereo unspecified) | -1 | 0.09
13 | CCCCCN(C)C(=O)c1cc(-c2ccc3ccccc3c2)on1 | -9 | 1.47
14 | CCn1c(C(C)Oc2ccccc2F)nnc1N1CCCC(S(C)(=O)=O)C1 (stereo unspecified) | -3 | 0.52
15 | CCOc1ccccc1Nc1nc(O)nnc1C | -11 | 1.02
16 | COC[C@@H](c1ccnn1C)n1cnc2ccncc2c1=O | -10 | 1.59
17 | COc1ccc(CC(=O)Nc2c(C)n[nH]c2-n2cnnc2)cc1 | -11 | 1.87
18 | CC1(C)CN(C(=O)c2ccc3c(c2)OCC(=O)N3)CC[C@H]1C(F)(F)F | 6 | -0.81
19 | Cc1cc([C@H]2C[C@H]3CC[C@@H](C2)N3C(=O)Cn2ccccc2=O)ccc1F | -1 | 0.16
20 | Cc1ccc(NC(=O)N2CC(Cc3ccoc3)C2)c2[nH]ncc12 | -5 | 0.57
21 | CS(=O)(=O)CC[C@@H](C(=O)NC1CCCC1)N1C(=O)c2ccc(Br)cc2C1=O | -7 | 1.21
22 | Cc1nnc(N(C)Cc2ccc(O)cc2)s1 | -4 | 0.37

Row | Compound | % Inhibition [%] | Z score
23 | CC1CC(NC(=O)C2CC(O)CN2)CN1C1CC1 (stereo unspecified) | -1 | 0.11
24 | O=C(Nc1ccccc1-c1nc2ccccc2s1)[C@@H]1Cc2ccccc2O1 | -1 | 0.08
25 | COc1ccc(F)c(NC(=O)N(CCO)C(C)C)c1 | 37 | -0.92
26 | O=C(NCc1ccccc1-c1ccsc1)c1ccno1 | -6 | 1.17
27 | CCOc1ccc(CN2C[C@@H](CO)[C@H](NC(=O)c3ccncc3)C2)cc1 | -28 | 4.76
28 | COc1ccc(Nc2nc(N3CCN(c4nc(-c5ccc(F)cc5)cs4)CC3)nc3ccccc23)c(OC)c1 | 4 | -0.55
29 | CC[C@H](OC1CCCCC1)C(=O)NCc1nnc(C(C)(C)C)s1 | 10 | -1.74
30 | Cc1ccc(C(=O)N(CC(N)=O)CC(C)C)c(Br)c1 | -15 | 2.11
31 | O=C1CCc2cc(S(=O)(=O)N3CCCC[C@@H]3Cn3ccnn3)ccc2N1 | -10 | 1.23
32 | CCOCC1CCN(C[C@H]2CCCN2C(=O)OC(C)(C)C)C1 (stereo partly specified) | -10 | 1.97
33 | CC1CCN(S(=O)(=O)c2ccc3c(c2)CCC(=O)N3CC(=O)Nc2cccnc2)CC1 | -4 | 0.73
34 | C=CCN(C(=O)c1ccnc(C)n1)c1nc2c(s1)CCCC2 | -30 | 3.48
35 | CN1CCN(C(=O)C2C3CCCC32)C(C)(C)C1=O (stereo unspecified) | -3 | 0.45
36 | CCn1c(-c2cc(NC(=O)c3ccsc3)[nH]n2)cc2ccc(OC)cc21 | 14 | -1.63
37 | CC[C@@](C)(CCO)NC(=O)NC1CC1 | -3 | 0.47
38 | CC1(C)CC(=O)C2(Cc3ccccc3N3CCN(c4cccc(Cl)c4)C[C@H]32)C(=O)C1 | 28 | -3.2
39 | Cc1ccc(CNc2nnc(-c3cc(C)oc3C)o2)o1 | 0 | 0.04
40 | COc1cccc(-c2n[nH]c(C3CC3)c2NC(=O)c2ccc(C(F)(F)F)cc2)c1 | -11 | 1.94
41 | CN(CCc1cnccn1)c1ccc(Br)c(C(F)(F)F)n1 | -7 | 1.33
42 | CCCCN(CC)C(=O)[C@@H]1Cc2[nH]cnc2C2(CCOCC2)N1 | -9 | 1.45
43 | Cc1occc1C(=O)NCCCn1ncc2c(Cl)cccc21 | 0 | -0.05
